Values quoted from earlier work as cited in PMC9804470, “A Formylglycine‐Peptide for the Site‐Directed Identification of Phosphotyrosine‐Mimetic Fragments” (Chemistry (Weinheim an Der Bergstrasse, Germany), 2022).

System: PTP1B
Conditions: read-out: KM value as substrate of PTP1B; phosphopeptide as substrate; cited from earlier work

Ac‐Asp‐Ala‐Asp‐Glu‐Tyr*‐Leu‐NH2 [Compound 1]
Km: 3.6 µM
